Consider 89 molecules from publication PMC4336329 (PLoS ONE, 2015).

About 14,000 (4.5%) of roughly 310,000 compounds showed an effect of 50% or more. Effects have a minus sign here. The list shows a part of the results.
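Note: peak tail current of the secondary pulse compared with the same well before compound.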

Chain of human ether-à-go-go-related gene (hERG) potassium channel (Q12809 whole entry, looked up): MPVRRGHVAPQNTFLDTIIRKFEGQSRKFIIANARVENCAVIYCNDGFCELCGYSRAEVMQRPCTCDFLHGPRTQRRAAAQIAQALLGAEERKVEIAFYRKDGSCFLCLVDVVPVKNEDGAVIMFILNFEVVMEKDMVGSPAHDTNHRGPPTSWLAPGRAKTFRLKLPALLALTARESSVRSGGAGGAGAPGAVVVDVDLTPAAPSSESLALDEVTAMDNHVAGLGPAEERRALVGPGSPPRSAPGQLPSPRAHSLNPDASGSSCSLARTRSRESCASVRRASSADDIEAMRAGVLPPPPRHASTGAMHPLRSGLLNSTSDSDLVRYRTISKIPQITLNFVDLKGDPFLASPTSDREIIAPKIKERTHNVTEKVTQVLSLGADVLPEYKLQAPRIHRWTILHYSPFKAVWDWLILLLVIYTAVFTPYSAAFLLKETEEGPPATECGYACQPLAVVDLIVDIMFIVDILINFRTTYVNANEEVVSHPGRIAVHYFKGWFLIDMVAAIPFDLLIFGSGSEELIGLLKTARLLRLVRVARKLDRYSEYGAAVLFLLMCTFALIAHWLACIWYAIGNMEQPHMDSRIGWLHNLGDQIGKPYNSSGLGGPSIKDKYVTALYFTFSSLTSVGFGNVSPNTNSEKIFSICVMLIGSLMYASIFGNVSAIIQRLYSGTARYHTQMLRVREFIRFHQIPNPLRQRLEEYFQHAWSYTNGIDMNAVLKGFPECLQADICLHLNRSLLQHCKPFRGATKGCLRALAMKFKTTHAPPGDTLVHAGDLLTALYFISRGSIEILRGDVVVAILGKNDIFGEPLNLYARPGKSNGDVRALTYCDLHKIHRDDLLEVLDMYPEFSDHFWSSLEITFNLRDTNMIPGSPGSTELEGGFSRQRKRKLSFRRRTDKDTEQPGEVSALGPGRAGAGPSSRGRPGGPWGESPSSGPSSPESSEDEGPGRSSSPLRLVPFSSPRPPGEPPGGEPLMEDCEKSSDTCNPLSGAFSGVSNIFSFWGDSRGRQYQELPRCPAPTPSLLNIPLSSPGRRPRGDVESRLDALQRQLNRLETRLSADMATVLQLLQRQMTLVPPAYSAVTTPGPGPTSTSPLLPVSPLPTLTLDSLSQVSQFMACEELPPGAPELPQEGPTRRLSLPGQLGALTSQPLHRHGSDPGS

The assay has as its target human ether-à-go-go-related gene (hERG) potassium channel (human, UniProt Q12809). In words: primary screen, population patch clamp on CHO cells stably expressing hERG.
On to `O=C(c1cccc(C(F)(F)F)c1)N1CCCC1`, for which the “hERG current change (%, negative = inhibition) at 10uM” value was 1.7%. Then `COc1ccc(N(C(=O)CCl)C(C)(C(=O)Nc2c(C)cccc2C)c2ccccn2)cc1` (centres unmarked), with 3.59%. Then `CC1(C)Cc2c(C#N)c(N3CCN(C(=O)c4ccccc4Cl)CC3)nc(-c3ccco3)c2CS1`, with -2.34%; and `COc1ccccc1OCc1ccc(C(=O)Nc2cc(OC)c(OC)c(OC)c2)o1`, with 4.96%. For `O=C(N/N=C/c1sc(N2CCOCC2)nc1-c1ccccc1)c1ccc(O)cc1` the value was -5.41%; for `COc1ccc(CCNC(=O)CNS(=O)(=O)c2ccc(Br)s2)cc1OC`, -2.94%; for `O=c1cc2c(nn1Cc1cccc(Cl)c1)-c1ccccc1CC2`, -12.3%. Turning to `CCC(C)OC(=O)n1ccc(C(=O)Nc2nccs2)n1` (centres unmarked), the “hERG current change (%, negative = inhibition) at 10uM” value was -13.8%. Then `CCCCn1c(O)c(C=NC2CCCCC2N)c(=O)[nH]c1=O` (centres unmarked), with 5.96%; and `CCCCN=Cc1c(O)n(-c2c(C)cc(C)cc2C)c(=O)[nH]c1=O`, with -16.1%; and `COc1ccc(N2CCN(C(=O)CNS(=O)(=O)c3ccc(C)c(C)c3)CC2)cc1`, with -19%.

`Cc1nc2c(oc3ccccc32)c(=O)o1`: the “hERG current change (%, negative = inhibition) at 10uM” value amounted to 5.06%. Then `CCOC(=O)/C=C/C(=O)OCC(=O)NC(c1ccccc1)c1ccccc1`, with 0.688%; and `Cc1ccc(/C=C/C(=O)Nc2ccccc2C(N)=O)cc1`, with -3.96%; and `COc1ccc(NC(=O)C(Sc2nnc3ccccn23)c2ccccc2)cc1Cl` (centres unmarked), with -1.62%.

With `CC1CN(Cc2nc3c(c(=O)[nH]c(=O)n3C)n2CCCc2ccccc2)CC(C)O1` (centres unmarked), the “hERG current change (%, negative = inhibition) at 10uM” value is given as -35.9%. For `Cc1ccc2nc(NC(=O)c3ccc(Cn4cc(Cl)cn4)o3)sc2c1` the value was 12.5%. Regarding `COc1ccc(S(=O)(=O)N2CCCCCC2)cc1C(=O)N1CCN(c2ccccc2O)CC1`, the “hERG current change (%, negative = inhibition) at 10uM” value is -70.6%.

As to `CCOc1ccccc1-n1nnnc1SCc1nc2ccccc2s1`, the “hERG current change (%, negative = inhibition) at 10uM” value is reported as -1.41%.

`CC(C)(C)c1cc(C(F)(F)F)nc(SCCCNC(=O)c2ccco2)n1`: the “hERG current change (%, negative = inhibition) at 10uM” value is recorded as -30.9%. Then `CCOc1ccccc1NC(=O)CSCC(=O)Nc1ccccc1`, with 4.34%. Then `CCOc1ccc(C2C(C#N)=C(N)N(N(C)C)C3=C2C(=O)CC(C)(C)C3)cc1` (centres unmarked), with 13.2%; and `Cc1ccc(/C=C/C(=O)O)cc1S(=O)(=O)N1CCc2ccccc21`, with 21.8%; and `CCn1c(N2CCN(CC(=O)c3c[nH]c4ccccc34)CC2)nc2c1c(=O)[nH]c(=O)n2C`, with -21.5%. With `COc1ccc(N(C(=O)c2ccco2)S(=O)(=O)c2cccs2)cc1`, the “hERG current change (%, negative = inhibition) at 10uM” value is recorded as -32.4%. Turning to `COC(=O)c1ccc(Sc2ccccc2NS(=O)(=O)c2ccc(C)cc2)nc1`, the “hERG current change (%, negative = inhibition) at 10uM” value was -7.94%. Consider `Cc1ccc(S(=O)(=O)NC(=O)c2ccccc2C)cc1`, for which the “hERG current change (%, negative = inhibition) at 10uM” value is 15%.

Take `Cc1cc(C)cc(NC(=O)N2C3CCCC2CC(NC(=O)C2CC2)C3)c1` (centres unmarked): the “hERG current change (%, negative = inhibition) at 10uM” value is 17%. Then `O=C(CNS(=O)(=O)c1ccc(Cl)cc1)NNC(=O)c1cccnc1`, with 20.7%; and `O=C(N/N=C/c1ccc(Cl)cc1)c1ccc2c(c1)OCO2`, with 13.3%.

Take `Cc1ccc2c(c1)=C(c1ccccc1)N(O)CC(=O)N=2`: the “hERG current change (%, negative = inhibition) at 10uM” value is recorded as 21.7%. Then `O=Cc1cc(CCC(=O)O)ccc1O`, with 7.65%; and `Cc1ccc(S(=O)(=O)N2CCCC2C(=O)NCc2ccc3c(c2)OCO3)cc1` (centres unmarked), with -27.2%; and `Cc1ccc(NC(=O)CN2C(=O)N/C(=C/c3ccc4c(c3)OCCO4)C2=O)cc1`, with 17.1%. On to `CCCOc1ccc(C(=O)Nc2ccc(NC(=O)c3cccs3)cc2)cc1`, for which the “hERG current change (%, negative = inhibition) at 10uM” value was found to be 15.9%.

As to `O=C(Nc1ncc(Cc2ccccc2Cl)s1)c1ccc(-c2cccc([N+](=O)[O-])c2)o1`, the “hERG current change (%, negative = inhibition) at 10uM” value amounted to 14.5%. `O=C(Nc1cccc(F)c1)N1CCN(C/C=C/c2ccccc2)CC1`: the “hERG current change (%, negative = inhibition) at 10uM” value is -59%. Then `COc1ccccc1C1C2=C(CC(C)(C)CC2=O)Nc2nnnn21` (centres unmarked), with 20.7%; and `CCOc1ccccc1Nc1ncccc1C(=O)N1CCCC1`, with 0.397%; and `O=C(Nc1cnn(Cc2ccccc2)c1)c1cc2nc(-c3ccco3)cc(C(F)(F)F)n2n1`, with 7.2%. For `CCOc1cc(C(=O)Nc2ncccn2)cc(OCC)c1OCC` the value was 11.2%. Then `Cc1ccc(S(=O)(=O)N2CCC(=O)N(C(COC(=O)Nc3ccccc3)Cc3ccccc3)CC2)cc1` (centres unmarked), with 2.51%; and `COc1ccc2c(C)c(CCC(=O)NCCCN3CCCC3=O)c(=O)oc2c1C`, with 1.56%; and `Cc1ccc(S(N)(=O)=O)cc1NC(=O)c1ccc2c3c(cccc13)CC2`, with 7.83%.

As for `COc1cccc(CN(C)C(=O)c2csc3c2CCCC3)c1OC`, the “hERG current change (%, negative = inhibition) at 10uM” value is -7.76%. Then `CC(=O)Oc1cccc(C(=O)Nc2ccc3c(c2)C(=O)N(CC2CCCO2)C3=O)c1` (centres unmarked), with 13.7%. Then `CCN(C1CCCCC1)S(=O)(=O)c1cc(C)ccc1OC`, with -19.8%; and `Clc1c2c(nc3ccccc13)CCC2`, with 16.4%. For `C=C(C)CSc1nnc(-c2ccc(C)cc2)n1N` the value was 10.3%; for `Cc1c(-n2c(-c3ccccc3Cl)n[nH]c2=S)c(=O)n(-c2ccccc2)n1C`, 22%; for `COc1ccccc1/C=C/C(=O)OC(C)CN1CCCCC1.Cl` (centres unmarked), -1.44%. On to `O=C(CN(c1ccc([N+](=O)[O-])cc1)S(=O)(=O)c1ccccc1)N1CCCCC1`, for which the “hERG current change (%, negative = inhibition) at 10uM” value is -61.9%. For `O=C(c1ccco1)N1CCN(c2ccc(Cl)cc2)CC1` the value was -40.7%; for `O=C(Nn1cc(C(=O)Nc2ccc(F)cc2F)c2ccccc2c1=O)c1cnccn1`, -2.17%. For `COCCCNC(=O)CN(CCc1ccccc1)S(=O)(=O)c1ccc(OC)cc1` the value was -26.5%; for `Cc1c(S(=O)(=O)Nc2cccc3ccccc23)c(=O)n(C)c(=O)n1C`, 6.97%; for `O=C(O)C(Cl)Cl`, 11.6%. With `Cc1nn(Cc2ccccc2)c(C)c1C=C1C(=O)NC(=S)NC1=O`, the “hERG current change (%, negative = inhibition) at 10uM” value was found to be 5.27%. For `CN(CC(=O)Nc1ccc2c(c1)OCO2)S(=O)(=O)c1cccs1` the value was -26.9%; for `CC(=O)N1CCOc2ccc(S(=O)(=O)N3CCN(c4cccc(C(F)(F)F)c4)CC3)cc21`, 7.8%. With `Cc1ccc2c(c1)CCCN2C(=O)c1cc(C)on1`, the “hERG current change (%, negative = inhibition) at 10uM” value is 5.99%. Take `c1ccc(Cc2nnc3n2N=C(c2ccccc2)CS3)cc1`: the “hERG current change (%, negative = inhibition) at 10uM” value is -44.1%. Then `CCC1COCCS(=O)(=O)N1Cc1ccc(C)cc1` (centres unmarked), with -1.07%; and `O=C(c1cc(-c2ccc(Br)cc2)on1)N1CCOCC1`, with 1.38%; and `Cc1c(N2C(=O)CSC23C(=O)Nc2ccccc23)c(=O)n(-c2ccccc2)n1C` (centres unmarked), with 4.6%. For `COc1cc([N+](=O)[O-])cc2sc(NC(=O)C3CC3)nc12`, the “hERG current change (%, negative = inhibition) at 10uM” value turned out to be 14.5%.

As for `Cc1ccccc1OCC(=O)Nc1ccc2c(c1)OCCO2`, the “hERG current change (%, negative = inhibition) at 10uM” value is -5.02%. On to `CC(O)c1nc2ccccc2n1Cc1nnc(-c2ccc(Cl)cc2)o1` (centres unmarked), for which the “hERG current change (%, negative = inhibition) at 10uM” value is on record as 3.53%. For `COc1ccc(CN2C(=NC(=O)c3ccccc3)SC3CS(=O)(=O)CC32)cc1` (centres unmarked) the value was 32.1%. As for `CC(=O)C1=C(O)C(=O)N(c2ccc(Br)cn2)C1c1ccccc1F` (centres unmarked), the “hERG current change (%, negative = inhibition) at 10uM” value turned out to be 10.6%. `O=C(NCc1cn2ccccc2n1)c1ccco1`: the “hERG current change (%, negative = inhibition) at 10uM” value came to 5.06%. Then `CCOC(=O)CSc1nnc(SCCN2C(=O)c3ccccc3C2=O)s1`, with -15.4%; and `CCC(=O)OC1(C)C(=O)C2=COC(c3ccc(OC)cc3)=CC2=C(Br)C1=O` (centres unmarked), with 1.2%.

For `O=C(CCN1C(=O)C2C3C=CC(C4CC34)C2C1=O)Oc1cccc2cccnc12` (centres unmarked), the “hERG current change (%, negative = inhibition) at 10uM” value was -11.1%. With `CCN(CC)C(=O)c1ccc(N2C(=O)C3CC=C(Cl)CC3C2=O)cc1` (centres unmarked), the “hERG current change (%, negative = inhibition) at 10uM” value is listed as 8.28%. For `O=C(Nc1ccccc1)c1c2c(nc3ccccc13)CCCC2` the value was -0.42%. For `FC(F)(F)c1cc(NCc2cccs2)n2ncnc2n1` the value was -3.38%. For `CCCOc1ccc(-c2c(C(=O)N/N=C/c3cccnc3)nnn2-c2nonc2N)cc1`, the “hERG current change (%, negative = inhibition) at 10uM” value is reported as -1.38%. Then `CCCn1c(N2CCN(CC(=O)c3c[nH]c4ccccc34)CC2)nc2c1c(=O)[nH]c(=O)n2C`, with -25.1%; and `CCOC(=O)c1ccc(NC(=O)c2cc(C)nc3ccccc23)cc1`, with 21.7%. For `Cc1noc(C(=O)N2CCN(c3ccccc3)CC2)c1Cl` the value was 6.13%; for `COc1ccc(Nc2ccc(Nc3ccc(OC)cc3)nn2)cc1`, 18.6%. For `N#Cc1ccc(NC(=O)Cn2cnc(S(=O)(=O)N3CCc4ccccc43)c2)cc1` the value was -4.98%. Regarding `CC(=O)NCCC(=O)NCC1(N(C)Cc2ccccc2)Cc2ccccc2C1`, the “hERG current change (%, negative = inhibition) at 10uM” value worked out at 16.6%.

Consider `CCCCNC(=O)C(=O)NCC1CCCN1S(=O)(=O)c1cccs1` (centres unmarked), for which the “hERG current change (%, negative = inhibition) at 10uM” value is reported as -7.61%. For `Cc1c(CC(=O)NCC(=O)O)c(=O)oc2cc3c(cc12)CCC(C)(C)O3` the value was 8.47%; for `CC(COc1ccc(C(C)C)cc1)NC(=O)c1ccc(Br)o1` (centres unmarked), 3.57%. For `CC(C)C(C(=O)NCC1CCCO1)N(Cc1ccco1)C(=O)CNS(=O)(=O)c1ccc(F)cc1` (centres unmarked) the value was -7.07%; for `CCOC(=O)N1CCN(C(=O)Nc2ccc3oc(C)nc3c2)CC1`, 3.86%.
